In PubChem BioAssay AID485281 (National Center for Advancing Translational Sciences (NCATS), 2010):
Hit rate of the full screen: of about 350,000 compounds, about 260 (0.074%) were called active. The shares of active, inactive and inconclusive entries below differ from those in the screen. Calls come from the whole dose curve; as a rule, active = well fitted inhibition curve with a large enough effect; inconclusive = small, poorly fitted or top-dose-only effect; inactive = no such curve, though single readings can be large or run the other way. A potency beside an inconclusive call is a rough fit, not a confirmed value.

Target: Ferritin light chain (Equus caballus) (UniProt P02791)
Chain of UniProt P02791 (P02791 whole entry, looked up): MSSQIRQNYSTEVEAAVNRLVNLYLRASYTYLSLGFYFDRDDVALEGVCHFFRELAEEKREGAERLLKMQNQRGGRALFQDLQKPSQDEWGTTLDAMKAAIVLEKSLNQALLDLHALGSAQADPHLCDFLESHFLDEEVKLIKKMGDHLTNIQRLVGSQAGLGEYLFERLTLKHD
Experiment: qHTS Assay for Identification of Novel General Anesthetics; note: nearly all actives have a fitted effect of over 20% in size
Conditions: apoferritin/1-aminoanthracene competitive binding, fluorescence; activity change, negative = displacement: at 77.5 µM (top of the series)
Outline: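 Apoferritin-based anesthetic binding model; compound displacement of fluorescent 1-AMA measured as endpoint fluorescence after 10 minutes at room temperature, scaled to free-ligand and complex controls.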
% is set by controls: 0 for no effect and ±100 for the full control effect; potency is the fitted concentration of half-maximal effect; tags give direction and shape of the fitted curve.

Potency, inconclusive:
C=CCNC(=S)N/N=C/c1cccc([N+](=O)[O-])c1 28.2 µM [inhibitor, partial curve]
C=Cc1c(C)/c2[n-]/c1=C\c1[n-]c(c(CC)c1C)/C=c1\[n-]c3c(c1C)C(=O)C(C(=O)[O-])C=3c1[n-]c(c(C)c1CCC(=O)[O-])\C=2.[Cu].[Na+].[Na+] (stereo unspecified) 28.2 µM [inhibitor, partial curve]
COc1ccc2c(c1)-c1nc(/N=C/c3cccc(OC)c3O)sc1CC2 22.4 µM [inhibitor, partial curve]
Cc1ccc(CCNC(=O)c2cc(S(=O)(=O)N3CCCCC3)c[nH]2)cc1 31.6 µM [inhibitor, partial curve]
Cc1ccc(C(=O)NC2CCCc3ccccc32)o1 (stereo unspecified) 25.1 µM [inhibitor, single point]
O=C(CSc1nnnn1C1CCCC1)Nc1ccc2c(c1)OCCO2 31.6 µM [inhibitor, single point]
N#CC(c1ccc(Cl)cc1)c1ccc2c(C(F)(F)F)cc(C(F)(F)F)nc2n1 (stereo unspecified) 22.4 µM [inhibitor, partial curve]
COc1ccc(C(C)=O)cc1COC(=O)c1cc(C)oc1C 50.1 µM [inhibitor, partial curve]
Cc1c(C(=O)N2CCC(C)CC2)oc2ccc3c(c12)C(O)CC1(CCCCC1)O3 (stereo unspecified) 15.8 µM [inhibitor, partial curve]
O=C(Nc1ccc(S(=O)(=O)N2CCCC2)cc1)c1ccc(CN2CCOCC2)cc1 28.2 µM [inhibitor, single point]
CCCCc1ccc(NC(=O)CSc2nnc(C)c(=O)n2N)cc1 31.6 µM [inhibitor, partial curve]
Cc1c(Cl)cccc1-c1ccc(/C=N/n2cnnc2)o1 20 µM [inhibitor, partial curve]
CC12CCC(C(=O)Nc3nccs3)(OC1=O)C2(C)C (stereo unspecified) 39.8 µM [inhibitor, partial curve]
Cc1ccc(CNc2ccc(N3C(=O)CC(C)C3=O)cc2[N+](=O)[O-])cc1 (stereo unspecified) 35.5 µM [inhibitor, partial curve]
CO/N=C(/CS(=O)(=O)c1ccc(Br)cc1)c1ccc(OC)cc1 14.1 µM [inhibitor, partial curve]
Cc1ccc(O)c(N=Cc2cc(Cc3ccccc3)cc([N+](=O)[O-])c2O)c1 31.6 µM [inhibitor, partial curve]
COc1ccc(S(=O)(=O)NC2CCCCC2)c(C)c1C 50.1 µM [inhibitor, single point]
Cc1cccc(N2CCN(CC(=O)Nc3nccs3)CC2)c1C 50.1 µM [inhibitor, single point]
Cc1ccc(C(Sc2ccccc2)C(Cn2cncn2)C(=O)c2ccccc2)cc1 (stereo unspecified) 3.98 µM [inhibitor, full curve, poor fit]
NS(=O)(=O)c1ccc(NC(=O)COC(=O)CCNC(=O)NC23CC4CC(CC(C4)C2)C3)cc1 31.6 µM [inhibitor, partial curve]
O=C(CNc1ccc2ccccc2c1)N/N=C/c1ccc([N+](=O)[O-])o1 50.1 µM [inhibitor, single point]
CCc1ccc(NC(=O)c2sccc2-n2cccc2)cc1 35.5 µM [inhibitor, partial curve]
O=C(NCc1ccccc1)c1csc2c1CCCC2 15.8 µM [inhibitor, partial curve]
CCOc1ccc(C2C(C#N)=C(C)NC3=C2C(=O)c2ccccc23)cc1 (stereo unspecified) 7.08 µM [inhibitor, full curve, poor fit]
CCN(CC)C(=O)NC1CCCCCCC1 22.4 µM [inhibitor, partial curve]
O=C(Cc1ccc(F)cc1)N1CCC(CC2CC(c3ccc(Cl)cc3)=NO2)(C(=O)NCC2CCCCC2)CC1 (stereo unspecified) 3.55 µM [inhibitor, full curve]
Cc1cc(C)c(-c2cc(NC(=O)CSc3n[nH]c(N)n3)n(-c3ccccc3)n2)cc1C 39.8 µM [inhibitor, partial curve]
COc1cccc([C@@H]2Oc3ccc(Br)cc3C(=O)[C@H]2OC(=O)NC2CCCC2)c1 14.1 µM [inhibitor, partial curve]
CCc1cc(=O)[nH]c(SCc2nc(-c3cccc(Cl)c3)no2)n1 14.1 µM [inhibitor, partial curve]
CC(C)c1ccc(NC(=O)C2CCCN2S(=O)(=O)c2ccc3nc(-c4ccccc4)[nH]c3c2)cc1 (stereo unspecified) 7.94 µM [inhibitor, partial curve]
COc1ccc(-n2nnnc2-c2cnc(N3CCCC3)nc2C(F)(F)F)cc1 12.6 µM [inhibitor, partial curve]
O=C(COC(=O)CSc1ccc(F)cc1)NCC1CCCCC1 12.6 µM [inhibitor, partial curve]
Clc1ccc(CN2CCSCC2)c(Cl)c1 39.8 µM [inhibitor, single point]
CCN(CC)C(=O)COc1ccc2c(-c3ccc(OC)cc3)cc(=O)oc2c1 31.6 µM [inhibitor, partial curve]
Cc1ccc(OCCNC(=O)/C=C/c2ccccc2)cc1C 35.5 µM [inhibitor, partial curve]
Cc1cccc(NC(=O)CC(C)(C)C)c1 31.6 µM [inhibitor, partial curve]
COc1cccc(OCC(O)CNC(=O)c2oc3c(C)c(C)ccc3c2C)c1 (stereo unspecified) 17.8 µM [inhibitor, partial curve]
COC(=O)c1ccc([C@H]2Nc3ccc(S(=O)(=O)Nc4cccc(C)c4)cc3[C@H]3C=CC[C@H]32)cc1 28.2 µM [inhibitor, partial curve]
COc1nc(NCc2ccc(Cl)cc2)nc(OC)n1 44.7 µM [inhibitor, partial curve]
CCOC(=O)c1cc2c(ccn2C)n1Cc1ccc(C#N)cc1 25.1 µM [inhibitor, partial curve]
O=C(Cc1ccc(F)cc1)N1CCN=C1SCc1cccc([N+](=O)[O-])c1 28.2 µM [inhibitor, partial curve]
CCOC(=O)C1CCCN(Cc2ccc(OCc3ccccc3)cc2)C1 (stereo unspecified) 28.2 µM [inhibitor, partial curve]
CC(C)CC(COCc1ccc([N+](=O)[O-])cc1)N1CCN(C(=O)c2ccc(C(F)(F)F)cc2)CCC1=O (stereo unspecified) 17.8 µM [inhibitor, partial curve]
CN1CCN(C2=C(Cl)C(=O)N(c3ccc(Cl)c(Cl)c3)C2=O)CC1 31.6 µM [inhibitor, partial curve]
COc1ccc(-c2csc(N3CCSCC3)n2)cc1 35.5 µM [inhibitor, single point]
Cc1n[nH]c(=O)c2c(NC(=O)CSc3nc4ccccc4c(=O)n3C(C)C)oc(C)c12 15.8 µM [inhibitor, partial curve]
CCOC(=O)c1sc(NC(=O)C2CC(=O)N(c3ccc(C)cc3)C2)nc1C (stereo unspecified) 35.5 µM [inhibitor, single point]
CCN(CC)CCNC(=O)c1ccc(NC(=O)c2ccccc2-c2ccc(C(F)(F)F)cc2)cc1 25.1 µM [inhibitor, partial curve]
COc1cccc(NC(=O)N(Cc2cc3cc(C)cc(C)c3[nH]c2=O)CC2COCCO2)c1 (stereo unspecified) 20 µM [inhibitor, partial curve]

Potency, active:
O=C(CNC(=O)c1ccc2c(c1)OCCO2)N/N=C/c1cccc(Br)c1 5.62 µM

Potency, inactive:
COC(=O)c1c(-c2ccccc2)c(-c2ccccc2)nn(C)c1=O

Activity change, negative = displacement, inactive:
CC(=O)Nc1ccc(OCC(O)Cn2c(C(C)C)nc3ccccc32)cc1 (stereo unspecified) -1.8%
O=C(c1ccc(Cl)cc1)C1CCN(C(=O)NC2CCCCC2)CC1 -1.69%
CC1(C)CC(N=c2cc(-c3ccccc3)oc3ccc(Cl)cc23)CC(C)(C)N1 -19.2%
COc1cc(C(=O)Oc2c(CN3CCOCC3)cc(Cl)c3cccnc23)cc(OC)c1OC -20.8%
CCc1ccccc1Nc1ncnc2c1cnn2-c1ccc(C)cc1C -8.97%
O=[N+]([O-])c1ccc(Oc2ccc(/C=N/O)cc2)nc1 -16.4%
O=C(COC(=O)c1ccc(Cl)nc1)Nc1ncc(Cl)cc1Cl -10.9%
CCOCCCn1c(SCC(=O)Nc2ccc(CC)cc2)nc2ccccc2c1=O -9.21%
Cc1ccc(NC(=O)COC(=O)c2ccc([N+](=O)[O-])o2)cc1S(=O)(=O)N1CCCCC1 -18.3%
CN1CCN(c2cc(-c3ccccc3)nc3cc(-c4ccc(F)cc4)nn23)CC1 -4.1%
Cc1cc(C)n(CCC(=O)N/N=C/c2c(O)ccc3ccccc23)n1 -13%
CC(C)CNC(=O)CSc1nc2scc(-c3ccccc3)c2c(=O)[nH]1 -15%
Cc1[nH]n(-c2ccccc2)c(=O)c1/C=N/Nc1nncc(-c2ccccc2)n1 5.65%
Clc1ccc(-c2nc3cnccn3c2NC2CCCC2)cc1 877%
CCOc1ccc(-c2nc(CSCC(=O)NCCN3CCOCC3)c(C)o2)cc1 -3.51%
